Laboratory results as given in PMC9911399, “Two distinct binding modes provide the RNA-binding protein RbFox with extraordinary sequence specificity”.
Positions count from the first letter of the chain named. Some of the results follow.

T1: RBFOX1 RRM RbFoxmut (Fox-RRM*) (Homo sapiens, UniProt Q9NWB1 109-208, R118D;E147R;N151S;E152T)
T1 sequence: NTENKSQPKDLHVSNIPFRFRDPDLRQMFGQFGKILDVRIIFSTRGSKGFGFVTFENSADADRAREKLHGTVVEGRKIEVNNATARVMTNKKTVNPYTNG

B1: CGCCCCG (DNA:RNA)
RNA: GGGAGACCGGAAUUCAGAUUGUCCCGCCCCGUUAAAUCCCGUCGUAGCCACCA
DNA 1: CAATCTGAATTCCGGTCTCCC
DNA 2: TGGTGGCTACGACGGGATT
B2: UAGACAC (DNA:RNA)
RNA: B1 RNA with C25U, G26A, C27G, C28A, C30A, G31C
DNA 1: CAATCTGAATTCCGGTCTCCC
DNA 2: TGGTGGCTACGACGGGATT
B3: GAAACCG (DNA:RNA)
RNA: B1 RNA with C25G, G26A, C27A, C28A
DNA 1: CAATCTGAATTCCGGTCTCCC
DNA 2: TGGTGGCTACGACGGGATT
B4: AAGCGUC (DNA:RNA)
RNA: B1 RNA with C25A, G26A, C27G, C29G, C30U, G31C
DNA 1: CAATCTGAATTCCGGTCTCCC
DNA 2: TGGTGGCTACGACGGGATT
B5: CCGAGAC (DNA:RNA)
RNA: B1 RNA with G26C, C27G, C28A, C29G, C30A, G31C
DNA 1: CAATCTGAATTCCGGTCTCCC
DNA 2: TGGTGGCTACGACGGGATT
B6: CGGUUAG (DNA:RNA)
RNA: B1 RNA with C27G, C28U, C29U, C30A
DNA 1: CAATCTGAATTCCGGTCTCCC
DNA 2: TGGTGGCTACGACGGGATT
B7: UAAAUUU (DNA:RNA)
RNA: GGGAGACCGGAAUUCAGAUUGUCCUAAAUUUUUAAAUCCCGUCGUAGCCACCA
DNA 1: CAATCTGAATTCCGGTCTCCC
DNA 2: TGGTGGCTACGACGGGATT
B8: CGGUCGU (DNA:RNA)
RNA: B1 RNA with C27G, C28U, C30G, G31U
DNA 1: CAATCTGAATTCCGGTCTCCC
DNA 2: TGGTGGCTACGACGGGATT
B9: UUGGUGG (DNA:RNA)
RNA: B7 RNA with A26U, A27G, A28G, U30G, U31G
DNA 1: CAATCTGAATTCCGGTCTCCC
DNA 2: TGGTGGCTACGACGGGATT
B10: ACAGGUU (DNA:RNA)
RNA: B7 RNA with U25A, A26C, A28G, U29G
DNA 1: CAATCTGAATTCCGGTCTCCC
DNA 2: TGGTGGCTACGACGGGATT
B11: UAGCGCC (DNA:RNA)
RNA: B1 RNA with C25U, G26A, C27G, C29G, G31C
DNA 1: CAATCTGAATTCCGGTCTCCC
DNA 2: TGGTGGCTACGACGGGATT
B12: CGCCGGU (DNA:RNA)
RNA: B1 RNA with C29G, C30G, G31U
DNA 1: CAATCTGAATTCCGGTCTCCC
DNA 2: TGGTGGCTACGACGGGATT
B13: CACGAAC (DNA:RNA)
RNA: B1 RNA with G26A, C28G, C29A, C30A, G31C
DNA 1: CAATCTGAATTCCGGTCTCCC
DNA 2: TGGTGGCTACGACGGGATT
B14: UCAUUCU (DNA:RNA)
RNA: B7 RNA with A26C, A28U, U30C
DNA 1: CAATCTGAATTCCGGTCTCCC
DNA 2: TGGTGGCTACGACGGGATT
B15: CAUCGUU (DNA:RNA)
RNA: B7 RNA with U25C, A27U, A28C, U29G
DNA 1: CAATCTGAATTCCGGTCTCCC
DNA 2: TGGTGGCTACGACGGGATT
B16: GUCCUAA (DNA:RNA)
RNA: B1 RNA with C25G, G26U, C29U, C30A, G31A
DNA 1: CAATCTGAATTCCGGTCTCCC
DNA 2: TGGTGGCTACGACGGGATT
B17: GAGGGCU (DNA:RNA)
RNA: B7 RNA with U25G, A27G, A28G, U29G, U30C
DNA 1: CAATCTGAATTCCGGTCTCCC
DNA 2: TGGTGGCTACGACGGGATT
B18: CGAGGUA (DNA:RNA)
RNA: B1 RNA with C27A, C28G, C29G, C30U, G31A
DNA 1: CAATCTGAATTCCGGTCTCCC
DNA 2: TGGTGGCTACGACGGGATT
B19: CGUAGCC (DNA:RNA)
RNA: B1 RNA with C27U, C28A, C29G, G31C
DNA 1: CAATCTGAATTCCGGTCTCCC
DNA 2: TGGTGGCTACGACGGGATT
B20: AGAGACG (DNA:RNA)
RNA: B1 RNA with C25A, C27A, C28G, C29A
DNA 1: CAATCTGAATTCCGGTCTCCC
DNA 2: TGGTGGCTACGACGGGATT
B21: GUGUCAG (DNA:RNA)
RNA: B1 RNA with C25G, G26U, C27G, C28U, C30A
DNA 1: CAATCTGAATTCCGGTCTCCC
DNA 2: TGGTGGCTACGACGGGATT
B22: GCCCACA (DNA:RNA)
RNA: B1 RNA with C25G, G26C, C29A, G31A
DNA 1: CAATCTGAATTCCGGTCTCCC
DNA 2: TGGTGGCTACGACGGGATT
B23: GCAUGGU (DNA:RNA)
RNA: B7 RNA with U25G, A26C, A28U, U29G, U30G
DNA 1: CAATCTGAATTCCGGTCTCCC
DNA 2: TGGTGGCTACGACGGGATT
B24: AAUGCCA (DNA:RNA)
RNA: B1 RNA with C25A, G26A, C27U, C28G, G31A
DNA 1: CAATCTGAATTCCGGTCTCCC
DNA 2: TGGTGGCTACGACGGGATT
B25: GGAACGG (DNA:RNA)
RNA: B1 RNA with C25G, C27A, C28A, C30G
DNA 1: CAATCTGAATTCCGGTCTCCC
DNA 2: TGGTGGCTACGACGGGATT
B26: CCUUCUG (DNA:RNA)
RNA: B1 RNA with G26C, C27U, C28U, C30U
DNA 1: CAATCTGAATTCCGGTCTCCC
DNA 2: TGGTGGCTACGACGGGATT
B27: CCCCCGC (DNA:RNA)
RNA: B1 RNA with G26C, C30G, G31C
DNA 1: CAATCTGAATTCCGGTCTCCC
DNA 2: TGGTGGCTACGACGGGATT
B28: CAAACAU (DNA:RNA)
RNA: B7 RNA with U25C, U29C, U30A
DNA 1: CAATCTGAATTCCGGTCTCCC
DNA 2: TGGTGGCTACGACGGGATT
B29: CCCGCCC (DNA:RNA)
RNA: B1 RNA with G26C, C28G, G31C
DNA 1: CAATCTGAATTCCGGTCTCCC
DNA 2: TGGTGGCTACGACGGGATT
B30: AAUUUUA (DNA:RNA)
RNA: B7 RNA with U25A, A27U, A28U, U31A
DNA 1: CAATCTGAATTCCGGTCTCCC
DNA 2: TGGTGGCTACGACGGGATT
B31: AAUGUCC (DNA:RNA)
RNA: B7 RNA with U25A, A27U, A28G, U30C, U31C
DNA 1: CAATCTGAATTCCGGTCTCCC
DNA 2: TGGTGGCTACGACGGGATT

Molecular target: T1, RBFOX1 RRM RbFoxmut (Fox-RRM*)
Experiment: EMSA; HiTS-Eq, 1 nM pool, 10 min; buffer printed only for the single-RNA assays: 10 mM Tris pH 7.5, 150 mM NaCl, 3.4 mM EDTA, 0.001% NP-40, 30 C
Conditions: tags: His6 N-terminal (pET28a); label: 5' 32P
Outline: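 These values rest on relative association constants, computed from read-count changes of each RNA species versus the control reaction and normalised to the cognate motif. Reads came from free RNA recovered by 8% native PAGE after purified RbFox RRM (wild type or mutant) at increasing concentrations was equilibrated for 10 min in 50 µL with 1 nM of a 5′-radiolabelled pool with 7 randomized nucleotides and DNA-annealed flanks.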

**Q.** For B1, which binding signal is on record?
**A.** 0.077 KA relative to UGCAUGU

**Q.** B2 was tested. Which binding signal did it give?
**A.** 0.0515 KA relative to UGCAUGU

**Q.** Which binding signal does the source give for B3 here?
**A.** 0.0569 KA relative to UGCAUGU

**Q.** B4 was tested. Which binding signal did it give?
**A.** 0.0855 KA relative to UGCAUGU

**Q.** Which binding signal does the source give for B5 here?
**A.** 0.0883 KA relative to UGCAUGU

**Q.** B6 was tested. Which binding signal did it give?
**A.** 0.111 KA relative to UGCAUGU

**Q.** How did the binding signal turn out when B7 was run?
**A.** 0.0739 KA relative to UGCAUGU

**Q.** B8 was tested. Which binding signal did it give?
**A.** 0.104 KA relative to UGCAUGU

**Q.** How did the binding signal turn out when B9 was run?
**A.** 0.126 KA relative to UGCAUGU

**Q.** Which binding signal does the source give for B10 here?
**A.** 0.108 KA relative to UGCAUGU

**Q.** For B11, which binding signal is on record?
**A.** 0.147 KA relative to UGCAUGU

**Q.** For B12, which binding signal is on record?
**A.** 0.104 KA relative to UGCAUGU

**Q.** How did the binding signal turn out when B13 was run?
**A.** 0.0998 KA relative to UGCAUGU

**Q.** With B14 as the binder, how does the binding signal read?
**A.** 0.0768 KA relative to UGCAUGU

**Q.** B15 was tested. Which binding signal did it give?
**A.** 0.125 KA relative to UGCAUGU

**Q.** B16 was tested. Which binding signal did it give?
**A.** 0.0984 KA relative to UGCAUGU

**Q.** For B17, which binding signal is on record?
**A.** 0.0788 KA relative to UGCAUGU

**Q.** Which binding signal does the source give for B18 here?
**A.** 0.165 KA relative to UGCAUGU

**Q.** Which binding signal does the source give for B19 here?
**A.** 0.167 KA relative to UGCAUGU

**Q.** B20 was tested. Which binding signal did it give?
**A.** 0.089 KA relative to UGCAUGU

**Q.** With B21 as the binder, how does the binding signal read?
**A.** 0.137 KA relative to UGCAUGU

**Q.** With B22 as the binder, how does the binding signal read?
**A.** 0.0838 KA relative to UGCAUGU

**Q.** For B23, which binding signal is on record?
**A.** 0.753 KA relative to UGCAUGU

**Q.** With B24 as the binder, how does the binding signal read?
**A.** 0.0793 KA relative to UGCAUGU

**Q.** How did the binding signal turn out when B25 was run?
**A.** 0.221 KA relative to UGCAUGU

**Q.** With B26 as the binder, how does the binding signal read?
**A.** 0.082 KA relative to UGCAUGU

**Q.** For B27, which binding signal is on record?
**A.** 0.151 KA relative to UGCAUGU

**Q.** With B28 as the binder, how does the binding signal read?
**A.** 0.0994 KA relative to UGCAUGU

**Q.** How did the binding signal turn out when B29 was run?
**A.** 0.0484 KA relative to UGCAUGU

**Q.** B30 was tested. Which binding signal did it give?
**A.** 0.111 KA relative to UGCAUGU

**Q.** For B31, which binding signal is on record?
**A.** 0.0792 KA relative to UGCAUGU
